In patent US20190375786A1, “STABLE PEPTIDES AND METHODS OF USE THEREOF” (Fred Hutchinson Cancer Research Center, priority 2016, published 2019):
Not every detail of the peptide structures is certain; ends, links or a residue may be inferred. Positions of bridges follow the written chain, without caps; N, C: chain ends. Residues, ends and D or L forms follow the SMILES beside them.

Legend:
[1] = Resistance to elevated temperature, HPLC; assay type: physicochemical; details: HPLC peak vs untreated peptide; for Resistance to Temperature (75° C.): 75° C. for one hour; for Resistance to Temperature (100° C.): 100° C. for one hour
Experimental: (§1) Peptides were first suspended in 500 μl of ddH2O to a stock concentration of 2 mg/ml. Reactions were prepared by adding 12.5 μg of peptide from the stock solution to a 10 mM solution of DTT in PBS and allowed to incubate at room temperature for 30 minutes. Other reactions were prepared with 12.5 μg peptide and 500 U/ml trypsin in 25 mM Tris/75 mM NaCl buffer (pH 7.0) and incubated for 30 minutes at 37.5° C. These reactions were then quenched with 5 μg of soybean trypsin inhibitor (I) and, in some cases, 10 mM dithiothreitol (DTT). Reversed phase HPLC (RP-HPLC) was run on samples using an Agilent 1260 HPLC equipped with a C-18 Poroshell 120B column. Sample were analyzed by a gradient method with a mobile phase of Solvent A (water with 0.1% TFA) and Solvent B (acetonitrile with 0.1% TFA). Solvent B was ramped up from 5%-45% of the mobile phase over a period of 10 minutes. For testing pepsin digestion resistance, reactions were prepared with 12.5 μg peptide with or without 500 U/ml pepsin in simulated gastric fluid (SGF; pH 1.05; […] sodium chloride in 0.7% (v/v) hydrochloric acid) and were incubated for 30 minutes at 37.5° C. For testing temperature resistance, peptides were incubated at 70° C., 75° C., or 100° C. for one hour in 0.5 mM PBS, pelleted, and then the supernatant was analyzed by HPLC.
This example illustrates peptide stability at high temperatures. Peptides were first suspended in 500 μl of ddH2O to a stock concentration of 2 mg/ml. Reactions were prepared by adding 6.25 μl of peptide from the stock solution with 95 μl ddH2O and incubated at room temperature, 70° C., or 100° C. for one hour in a Thermocycler. RP-HPLC was then run on samples using an Agilent 1260 HPLC equipped with a C-18 Poroshell 120B column. Sample were analyzed by a gradient method with a mobile phase of Solvent A (water with 0.1% TFA) and Solvent B (acetonitrile with 0.1% TFA). Solvent B was ramped up from 5%-45% of the mobile phase over a period of 10 minutes.

[2] = Resistance to reduction by DTT, RP-HPLC; assay type: physicochemical; details: 10 mM DTT in PBS, room temperature, 30 minutes; HPLC peak vs untreated peptide
Experimental: Peptides were first suspended in 500 ul of ddH2O to a stock concentration of 2 mg/ml. Reactions were prepared by adding 12.5 ug of peptide from the stock solution to a 10 mM solution of DTT in PBS and allowed to incubate at room temperature for 30 minutes. Other reactions were prepared with 12.5 μg peptide with or without 500 U/ml pepsin in simulated gastric fluid (SGF; pH 1.05; […] sodium chloride in 0.7% (v/v) hydrochloric acid) and were incubated for 30 minutes at 37.5° C. Some reactions were quenched with a final concentration of 100 mM Tris base and 10 mM dithiothreitol (DTT). Some reactions were performed in all of the above components, including simulated gastric fluid, pepsin, Tris, and DTT (referred to as SPTD). Reversed phase HPLC (RP-HPLC) was run on samples using an Agilent 1260 HPLC equipped with a C-18 Poroshell 120B column. Sample were analyzed by a gradient method with a mobile phase of Solvent A (water with 0.1% TFA) and Solvent B (acetonitrile with 0.1% TFA). Solvent B was ramped up from 5%-45% of the mobile phase over a period of 10 minutes. Peptides were detected at an absorbance of 214 nm and 280 nm.
as §1
This example illustrates peptide stability in biological conditions including in the presence of reducing agents, proteases, oxidative conditions, acidic conditions, and simulated gastric fluids. […] Various peptides were suspended in 500 μl of ddH2O at a stock concentration of 2 mg/ml. This was then diluted in accord with the reaction conditions to prevent adverse buffering effects. Reactions were prepared with 12.5 μg peptide dissolved in solution and, in some samples, additionally suspended in a 10 mM solution of DTT, simulated gastric fluid (pH 1.05; […] sodium chloride in 0.7% (v/v) hydrochloric acid), 500 U pepsin (5000 U/ml pepsin), 50 U trypsin (500 U/ml trypsin) with 1 mg/ml inhibitor in PBS, or a combination of any of these conditions. All protease reactions were incubated for 30 min at room temperature and then quenched. Pepsin reactions were quenched by adding Tris base to a final concentration of 0.075 M. Trypsin reactions were quenched by adding excess soybean trypsin inhibitor. RP-HPLC was then run on samples using an Agilent 1260 HPLC equipped with a C-18 Poroshell 120B column. Sample were analyzed by a gradient method with a mobile phase of Solvent A (water with 0.1% TFA) and Solvent B (acetonitrile with 0.1% TFA). Solvent B was ramped up from 5%-45% of the mobile phase over a period of 10 minutes.
FIG. 18 illustrates high performance liquid chromatograph (HPLC) traces of peptides in non-reducing (NR) conditions (solid trace) or in 10 mM DTT reducing (R) conditions (dashed trace). […]

CSCC[C@@H]1NC(=O)[C@@H]2CSSC[C@H](NC(=O)[C@H](CCCCN)NC(=O)[C@@H](NC(=O)[C@H](CC(=O)O)NC(=O)[C@@H](NC(=O)[C@H](Cc3ccccc3)NC(=O)[C@H](CCC(N)=O)NC(=O)[C@H](CO)NC(=O)CN)[C@@H](C)O)C(C)C)C(=O)N[C@@H]([C@@H](C)O)C(=O)NCC(=O)N[C@@H](CO)C(=O)N[C@@H](CCCCN)C(=O)N[C@@H](CCC(N)=O)C(=O)N[C@H]3CSSC[C@H](NC(=O)[C@H](CCCCN)NC(=O)CNC(=O)[C@H](CC(N)=O)NC1=O)C(=O)N[C@@H](CCCNC(=N)N)C(=O)N[C@H](C(=O)N[C@@H](Cc1ccc(O)cc1)C(=O)N[C@@H](CO)C(=O)O)CSSC[C@H](NC(=O)[C@H](C(C)C)NC(=O)[C@@H]1CCCN1C(=O)[C@H](Cc1c[nH]c4ccccc14)NC3=O)C(=O)N[C@@H](CCCCN)C(=O)N[C@@H](CCC(N)=O)C(=O)N[C@@H](CCSC)C(=O)N[C@@H](Cc1ccccc1)C(=O)NCC(=O)N[C@@H](CCCCN)C(=O)N1CCC[C@H]1C(=O)N[C@@H](CC(N)=O)C(=O)NCC(=O)N[C@@H](CCCCN)C(=O)N2 [compound 12] (H-GSQFTDVKCTGSKQCWPVCKQMFGKPNGKCMNGKCRCYS-OH; disulfide 9-30, 15-35, 19-37)
Resistance to Temperature (75° C.) [1]: High (A peptide classified as high indicates that the majority (at least 75%) of the HPLC peak of the treated peptide is still present as compared to the HPLC peak of the untreated peptide) | Resistance to Temperature (100° C.) [1]: High (A peptide classified as high indicates that the majority (at least 75%) of the HPLC peak of the treated peptide is still present as compared to the HPLC peak of the untreated peptide) | Resistance to DTT Reduction (10 mM) [2]: Moderate (A peptide classified as medium indicates that about half (between 25% and 75%) of the HPLC peak of the treated peptide disappeared as compared to the HPLC peak of the untreated peptide)

CC[C@H](C)[C@@H]1NC(=O)[C@@H]2CSSC[C@@H]3NC(=O)[C@H](CCCCN)NC(=O)CNC(=O)[C@H](CC(N)=O)NC(=O)[C@H](CCSC)NC(=O)[C@H](CSSC[C@H](NC(=O)[C@H](CCCCN)NC(=O)[C@@H](NC(=O)[C@H](CC(=O)O)NC(=O)[C@@H](NC(=O)[C@@H]4CCCN4C(=O)[C@@H](NC(=O)CNC(=O)[C@H](CO)NC(=O)CN)C(C)C)[C@@H](C)O)C(C)C)C(=O)N[C@@H](CCCNC(=N)N)C(=O)NCC(=O)N[C@@H](CO)C(=O)N4CCC[C@H]4C(=O)N[C@@H](CCC(N)=O)C(=O)N2)NC(=O)[C@H](CCCCN)NC(=O)CNC(=O)[C@H](Cc2ccccc2)NC(=O)[C@H](CCCNC(=N)N)NC(=O)[C@H](CCSC)NC(=O)CNC(=O)[C@H](C)NC(=O)[C@H](CC(=O)O)NC(=O)[C@H](CCCCN)NC(=O)[C@H](CSSC[C@@H](C(=O)N[C@H](C(=O)N2CCC[C@H]2C(=O)N[C@@H](CCCCN)C(=O)O)[C@@H](C)O)NC(=O)[C@H](Cc2c[nH]cn2)NC3=O)NC(=O)[C@@H]2CCCN2C(=O)[C@H](CCC(N)=O)NC1=O [compound 56] (H-GSGVPTDVKCRGSPQCIQPCKDAGMRFGKCMNGKCHCTPK-OH; disulfide 10-30, 16-35, 20-37)
Resistance to Temperature (75° C.) [1]: High (A peptide classified as high indicates that the majority (at least 75%) of the HPLC peak of the treated peptide is still present as compared to the HPLC peak of the untreated peptide) | Resistance to Temperature (100° C.) [1]: Low (A peptide classified as low indicates that the majority (over 75%) of the HPLC peak of the treated peptide disappeared as compared to the HPLC peak of the untreated peptide) | Resistance to DTT Reduction (10 mM) [2]: Low (A peptide classified as low indicates that the majority (over 75%) of the HPLC peak of the treated peptide disappeared as compared to the HPLC peak of the untreated peptide)

CC[C@H](C)[C@@H]1NC(=O)[C@H](CCCCN)NC(=O)[C@@H](NC(=O)[C@H](CCCCN)NC(=O)[C@@H](NC(=O)[C@H](CC(N)=O)NC(=O)[C@@H](NC(=O)[C@@H](NC(=O)[C@@H](NC(=O)CNC(=O)[C@H](CO)NC(=O)CN)C(C)C)[C@@H](C)CC)[C@@H](C)CC)C(C)C)CSSC[C@@H]2NC(=O)[C@H](CCCCN)NC(=O)CNC(=O)[C@H](Cc3ccccc3)NC(=O)[C@H](CCCNC(=N)N)NC(=O)[C@H](CCSC)NC(=O)CNC(=O)[C@H](C)NC(=O)[C@H](CCCCN)NC(=O)[C@H](CCCCN)NC(=O)[C@@H]3CSSC[C@@H](C(=O)N[C@H](C(=O)N4CCC[C@H]4C(=O)N[C@@H](CCCCN)C(=O)O)[C@@H](C)O)NC(=O)[C@H](Cc4c[nH]cn4)NC(=O)[C@H](CSSC[C@H](NC(=O)[C@H](CCC(N)=O)NC(=O)[C@H](CCCNC(=N)N)NC(=O)[C@H](CO)NC1=O)C(=O)N[C@@H](CC(C)C)C(=O)N[C@@H](CCC(=O)O)C(=O)N1CCC[C@H]1C(=O)N3)NC(=O)[C@H](CCCCN)NC(=O)CNC(=O)[C@H](CC(N)=O)NC(=O)[C@H](CCSC)NC2=O [compound 57]
Resistance to Temperature (75° C.) [1]: High (A peptide classified as high indicates that the majority (at least 75%) of the HPLC peak of the treated peptide is still present as compared to the HPLC peak of the untreated peptide) | Resistance to Temperature (100° C.) [1]: High (A peptide classified as high indicates that the majority (at least 75%) of the HPLC peak of the treated peptide is still present as compared to the HPLC peak of the untreated peptide) | Resistance to DTT Reduction (10 mM) [2]: High (A peptide classified as high indicates that the majority (at least 75%) of the HPLC peak of the treated peptide is still present as compared to the HPLC peak of the untreated peptide)
